Laboratory results reported in PubChem BioAssay AID624296 (National Center for Advancing Translational Sciences (NCATS), 2012).
Screen size: about 350,000 compounds; about 9,900 (2.8%) were called active. The shares of active, inactive and inconclusive entries below differ from those in the screen. The call rests on the fitted dose curve; in most records, active means well fitted activation curve with a large enough effect; inconclusive means small, poorly fitted or top-dose-only effect; inactive means no such curve, though single readings can be large or run the other way. Potencies of inconclusive entries are left out as doubtful fits.

Assay: A quantitative high throughput screen for small molecules that induce DNA re-replication in MCF 10a normal breast cells. Further: nearly all actives have a fitted effect of over 50% in size. On activity, positive = re-replication: % of control where 0% means no effect.
Conditions: MCF 10A DNA re-replication, Hoechst nuclear intensity, 48 h; activity, positive = re-replication: at 46.1 µM (top of the series)
Potency means the concentration at half of the fitted maximal effect; tags describe the fitted curve by direction and shape.

Question: Which “activity, positive = re-replication” value does the source give for O=C(CCCn1cncn1)N1CCCC(Nc2ccc(F)cc2)C1 (stereo not given) here?
Answer: inactive: -0.126%

Question: For Nn1c(SCC(=O)NCCc2ccc(F)cc2)nnc1C1CCCCC1, which “activity, positive = re-replication” value is on record?
Answer: inactive: -2.34%

Question: Which “activity, positive = re-replication” value does the source give for Cc1nn(-c2ccccc2)c(N2CCCC2)c1/C=N/NC(=O)c1cc(-c2cccs2)nc2ccccc12 here?
Answer: inactive: 2.35%

Question: With CCc1ccc2oc(-c3cc(N)cc(C)c3O)nc2c1 as the molecule, how does the Potency read?
Answer: inconclusive [activator, single point]

Question: For CCOC(=O)Cn1c(C)nc2ccccc21, which “activity, positive = re-replication” value is on record?
Answer: inactive: 4.34%

Question: For CCN1C(=O)C(=Cc2cccc(OC)c2Oc2ccc([N+](=O)[O-])cc2[N+](=O)[O-])SC1=S, which Potency is on record?
Answer: inconclusive [activator, partial curve, poor fit]

Question: With O=C(NCCc1ccccc1F)N[C@@H](Cc1ccccc1)C(=O)O as the molecule, how does the Potency read?
Answer: inconclusive [activator, single point]

Question: For CCN(CC)S(=O)(=O)c1cc(NC(=O)CCNC(=O)c2ccco2)ccc1C, which “activity, positive = re-replication” value is on record?
Answer: inactive: -24.3%

Question: For COc1cc(/C=C/C(=O)c2ccc(F)cc2)cc(OC)c1OC, which Potency is on record?
Answer: inconclusive [activator, single point]

Question: For Cc1nn(C2CCS(=O)(=O)C2)c(C)c1CN(C)C(=O)c1cccc(Cl)c1 (stereo not given), which “activity, positive = re-replication” value is on record?
Answer: inactive: 13.4%

Question: With CCOC(=O)C1=C(COC(=O)c2ccc(OC)c(OC)c2OC)NC(=O)NC1C (stereo not given) as the molecule, how does the “activity, positive = re-replication” value read?
Answer: inactive: 1.22%

Question: With O=S(=O)(NC(=NCc1ccccc1)c1ccc(F)cc1)c1ccc(Cl)cc1 as the molecule, how does the Potency read?
Answer: active: 0.731 µM

Question: Which “activity, positive = re-replication” value does the source give for Oc1ccc(/C=N/NC(=S)NCC2CCCO2)cc1 (stereo not given) here?
Answer: inactive: -2.61%

Question: With COc1ccc(-c2oc(=O)c3cc(OC)c(OC)cc3c2C#CCCCO)cc1 as the molecule, how does the Potency read?
Answer: inconclusive [activator, partial curve]

Question: With O=C(Nc1ccc(-c2nc3cccnc3s2)cc1)c1ccco1 as the molecule, how does the Potency read?
Answer: inconclusive [activator, partial curve, poor fit]

Question: Which “activity, positive = re-replication” value does the source give for CN(Cc1ccccc1)S(=O)(=O)c1ccc2c(c1)CCC(=O)N2 here?
Answer: inactive: -1.42%

Question: Which Potency does the source give for C/C(CCN1CCCCc2nc(C)c(C)cc21)=N\O[C@@H](C)CN1CCCCc2nc(C)c(C)cc21 here?
Answer: active: 23.1 µM

Question: With CCCCN(C)C(=O)c1cc2c(Cl)nc3ccccc3c2s1 as the molecule, how does the Potency read?
Answer: inconclusive [activator, single point]

Question: For CCCCn1nc2cc(C(=O)N[C@H](C)C3CCCCC3)ccc2c1OCC, which Potency is on record?
Answer: inconclusive [activator, single point]

Question: Which Potency does the source give for O=C(CCCN1C(=O)/C(=C/c2ccc(F)cc2)SC1=S)NC1CCS(=O)(=O)C1 (stereo not given) here?
Answer: inconclusive [activator, single point]

Question: For Cc1ccc(C=Nc2ccccc2C(=O)Nc2ccccc2)cc1, which Potency is on record?
Answer: inconclusive [activator, partial curve, poor fit]

Question: For CC(=O)Oc1ccc(C2(C)CC(C)(C)NC(=S)N2C)c(OC(C)=O)c1 (stereo not given), which Potency is on record?
Answer: active: 1.3 µM

Question: With Cc1ccc([N+](=O)[O-])cc1NC(=O)C(Sc1ccccc1)c1ccccc1 (stereo not given) as the molecule, how does the “activity, positive = re-replication” value read?
Answer: inactive: -4.46%

Question: For COc1ccc(NC(=O)Nc2cccc3c2O[C@H](CN(C)C(=O)NC2CCCCC2)[C@@H](C)CN([C@H](C)CO)C3=O)cc1, which “activity, positive = re-replication” value is on record?
Answer: inactive: -5.97%

Question: Which Potency does the source give for CCOc1ccccc1NC(=O)CN1c2cccc3cccc(c23)S1(=O)=O here?
Answer: inconclusive [activator, single point]

Question: For COC(=O)CC/C(O)=C1\C(=O)CC(C)(C)CC1=NCc1nc2ccccc2[nH]1, which Potency is on record?
Answer: inconclusive [activator, partial curve, poor fit]

Question: For O=C(Nc1ccc(-c2nc3ccccc3o2)cc1)c1ccc2c(c1)OCO2, which Potency is on record?
Answer: inconclusive [activator, partial curve, poor fit]

Question: Which Potency does the source give for C=CCC(=O)N1CCCC(CNC(=O)c2ccc(-c3ccccc3)cc2)C1 (stereo not given) here?
Answer: inconclusive [activator, single point]

Question: Which Potency does the source give for O=C(c1c(O)c2ccccc2oc1=O)C1CCCCC1 here?
Answer: inconclusive [activator, single point]

Question: For Cc1cc(Cl)ccc1OCC(=O)N(Cc1ccco1)c1c(N)n(Cc2ccccc2)c(=O)[nH]c1=O, which Potency is on record?
Answer: inconclusive [activator, single point]

Question: With CSc1nc2ccc(N3C(=O)C4CCCCC4C3=O)cc2s1 (stereo not given) as the molecule, how does the “activity, positive = re-replication” value read?
Answer: inactive: 2.4%

Question: With O=C1c2ccccc2C(=O)N1CCCCN(C(=O)c1cc2ccccc2oc1=O)c1ccc(Cl)cc1 as the molecule, how does the “activity, positive = re-replication” value read?
Answer: inactive: 0.0751%

Question: With O=C(CSC1=NCCN1)NC12CC3CC(CC(C3)C1)C2 as the molecule, how does the Potency read?
Answer: inconclusive [activator, single point]

Question: Which “activity, positive = re-replication” value does the source give for NC(=O)CC(NC(=O)c1ccccc1)c1ccc(NC2CCN(Cc3ccccc3)CC2)c([N+](=O)[O-])c1 (stereo not given) here?
Answer: inactive: -8.02%

Question: For S=c1[nH]nc(-c2ccc(Cl)cc2Cl)n1Cc1ccccc1, which “activity, positive = re-replication” value is on record?
Answer: inactive: 15.5%

Question: Which Potency does the source give for Cc1ccc(-n2nc3c(c2NC(=O)c2ccc(F)c(F)c2)CS(=O)(=O)C3)cc1 here?
Answer: inconclusive [activator, single point]

Question: For Cc1cc2[nH]c(=O)c(=O)[nH]c2cc1S(=O)(=O)N1CCN(c2cccc(C)c2C)CC1, which Potency is on record?
Answer: inconclusive [activator, partial curve, poor fit]

Question: For Cc1ccc(SC(C)C(=O)NC(N)=O)c(C)c1 (stereo not given), which Potency is on record?
Answer: active: 0.58 µM

Question: For COc1ncnc2c1oc1ccccc12, which “activity, positive = re-replication” value is on record?
Answer: inactive: 9.08%

Question: With CCOC(=O)c1c2c3c(c(Cl)ccc3[nH]c1=O)C(=O)c1ccccc1-2 as the molecule, how does the Potency read?
Answer: inconclusive [activator, single point]

Question: For CCCCNC(=S)NCc1ccc2[nH]c(C)cc2c1, which Potency is on record?
Answer: inconclusive [activator, partial curve, poor fit]

Question: For O=C(/C=C/c1ccc(O)c(O)c1)c1ccccc1O, which Potency is on record?
Answer: inconclusive [activator, single point]

Question: With CC(c1ccccc1)n1c(SCC(=O)N2CC(=O)Nc3ccccc32)nc2ccccc2c1=O (stereo not given) as the molecule, how does the Potency read?
Answer: inconclusive [activator, single point]

Question: Which Potency does the source give for O=C(O)CSc1nnc(-c2ccc(Cl)cc2Cl)n1-c1ccc(Cl)cc1 here?
Answer: inconclusive [activator, single point]

Question: Which Potency does the source give for N#Cc1c(C(F)(F)F)cc(-c2ccccc2)[nH]c1=O here?
Answer: inconclusive [activator, single point]

Question: Which Potency does the source give for CCCOC(=O)C1=C(C)NC2=C(C(=O)C(C(=O)OC)C(C)C2)C1c1ccc(N(C)C)cc1 (stereo not given) here?
Answer: inconclusive [activator, partial curve, poor fit]

Question: For C=CC[C@H](CC(=O)N(CCO)Cc1ccccc1)C(=O)N[C@H](COC(=O)[C@H](CC=C)CC(=O)OC(C)(C)C)Cc1ccccc1, which Potency is on record?
Answer: inconclusive [activator, partial curve, poor fit]

Question: For COc1cc(Cl)c(C)cc1NC(=O)c1ccc(NS(=O)(=O)c2ccc(F)c(F)c2)cc1, which Potency is on record?
Answer: inconclusive [activator, partial curve, poor fit]

Question: Which Potency does the source give for Cc1nn(-c2ccccc2)c(N2CCCC2)c1/C=N/NC(=O)c1cccc(S(=O)(=O)Nc2ccc(Cl)cc2)c1 here?
Answer: inconclusive [activator, full curve, poor fit]

Question: Which “activity, positive = re-replication” value does the source give for CN(C(=O)c1ccc2c(c1)SC1=NS(=O)(=O)CCN12)C(c1ccccc1)c1ccccc1 here?
Answer: inactive: -5.14%

Question: With CC(C)(C)C(=O)Nc1cc2nn(-c3ccccc3)nc2cc1Cl as the molecule, how does the Potency read?
Answer: inconclusive [activator, single point]

Question: With CC1=CC(C)(C)N(S(=O)(=O)c2ccc(C)cc2)c2cc(C)ccc21 as the molecule, how does the Potency read?
Answer: inconclusive [activator, partial curve, poor fit]

Question: For NC(=O)CSc1nnc(-c2cccc(S(=O)(=O)N3CCOCC3)c2)n1C1CCCCCC1, which Potency is on record?
Answer: inconclusive [activator, single point]

Question: With CC1=NN(c2ccc(Br)cc2)C(=O)/C1=C/c1cccs1 as the molecule, how does the Potency read?
Answer: active: 18.4 µM

Question: Which “activity, positive = re-replication” value does the source give for O=C(CN(C(=O)c1csnn1)c1ccccc1F)NCc1ccccc1 here?
Answer: inactive: -2.83%

Question: Which Potency does the source give for Cc1ccc(CN2C(=O)C(Cc3ccccc3)Nc3ncnc(N4CCCCC4)c32)cc1 (stereo not given) here?
Answer: inconclusive [activator, partial curve, poor fit]

Question: Which Potency does the source give for Cn1c(=O)c2c(nc(CN3CCc4ccccc4C3)n2Cc2ccccc2F)n(C)c1=O here?
Answer: inconclusive [activator, partial curve, poor fit]

Question: With O=C(c1cccc(F)c1)N1CCC(c2nc3ccccc3s2)CC1 as the molecule, how does the Potency read?
Answer: inconclusive [activator, partial curve, poor fit]

Question: With COc1ccc(/C(C)=N/OC/C(O)=C(\C#N)c2nc3ccccc3[nH]2)cc1OC as the molecule, how does the Potency read?
Answer: inconclusive [activator, partial curve, poor fit]

Question: For COc1cc2c(cc1OC)CN(CC(=O)Nc1ccccc1C(=O)NCc1ccccc1)CC2, which Potency is on record?
Answer: inconclusive [activator, partial curve, poor fit]

Question: Which Potency does the source give for CCOC(=O)c1c(Nc2ccc(Cl)cc2)sc(/C=C2\C=Nc3ccccc32)c1O here?
Answer: inconclusive [activator, partial curve, poor fit]

Question: With CCN(C(=O)COc1ccccc1[N+](=O)[O-])C1CCS(=O)(=O)C1 (stereo not given) as the molecule, how does the Potency read?
Answer: inconclusive [activator, partial curve, poor fit]

Question: For COc1ccc(S(=O)(=O)Nc2cccc3c2O[C@H](CN(C)Cc2ccncc2)[C@@H](C)CN([C@H](C)CO)C3=O)cc1, which Potency is on record?
Answer: inconclusive [activator, partial curve, poor fit]

Question: Which “activity, positive = re-replication” value does the source give for c1cnc(Oc2ccc(-c3nnco3)cc2)cn1 here?
Answer: inactive: -1.37%

Question: For O=C(c1ccccc1)[C@@H]1[C@@H]2C(=O)N(c3ccc(F)cc3)C(=O)[C@@H]2C2CCCN21 (stereo not given in full), which Potency is on record?
Answer: inconclusive [activator, single point]
